# Experimental data from the supplement of paper PMC11060735.
# Values joined by “and” are separate entries in the source; they are usually repeats but may differ in a detail not shown here. Identical values can stand only once. Counter-ions that a name gives are not always drawn. Screen size: about 1,800 compounds; about 50 (3%) showed activity. Some of the results follow.
# Tested on: mouse p16Ink4a+/- lung fibroblasts (INKBRITE, bleomycin-injured)
# Assay: percentage of GFP+ (p16Ink4a+) fibroblasts among all cells in well; higher = less depletion of p16Ink4a+ cells, active = 20 or less
# Settings: 1 µM; 3 days
# 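Note: fibroblasts sorted 14 days after bleomycin, GFP+ and GFP− mixed 1:1 in 384-well plates (GFP− as in-well control), imaged after Hoechst and NucView530 staining, reference wells lacked compound.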
row,Compound,percentage of GFP+
1,C=C1C(n2cnc3c(O)nc(N)nc32)C[C@H](O)[C@H]1CO (stereo partly specified) [Entecavir Hydrate],inactive: 35.2%
2,O=C(Nc1ccc(S(=O)(=O)Nc2ccccc2Cl)c(Cl)c1)c1ccccn1,inactive: 42.8%
3,CCc1c2c(nc3ccc(O)cc13)-c1cc3c(c(=O)n1C2)COC(=O)[C@]3(O)CC,inactive: 31.4%
4,CC(C)N(CC[C@H](c1ccccc1)c1cc(CO)ccc1O)C(C)C [5-hydroxymethyl Tolterodine],inactive: 46.7%
5,CN(C)CCC[C@@]1(c2ccc(F)cc2)OCc2cc(C#N)ccc21 [Citalopram],inactive: 51.1%
6,Nc1ccccc1NC(=O)c1ccc(CNC(=O)OCc2cccnc2)cc1 [Entinostat],inactive: 32%
7,CNCc1cc(-c2ccccc2F)n(S(=O)(=O)c2cccnc2)c1,inactive: 46.6%
8,Cn1c(=O)cc(N2CCC[C@@H](N)C2)n(Cc2ccccc2C#N)c1=O [Alogliptin],inactive: 46.3%
9,Cc1nc(-c2ccc(OCC(C)C)c(C#N)c2)sc1C(=O)O [Febuxostat],inactive: 42.1%
10,Cc1cccc(-c2nn3c(c2-c2ccnc4ccc(C(N)=O)cc24)CCC3)n1,inactive: 40.8%
11,N#C/C(=C1/SC[C@@H](c2ccc(Cl)cc2Cl)S1)n1ccnc1 [Luliconazole],inactive: 40.5%
12,C[C@@H]1C(=O)O[C@H]2CC34[C@H]5C[C@@H](C(C)(C)C)C36[C@@H](OC(=O)[C@@H]6O)O[C@@]4(C(=O)O5)[C@]21O (stereo partly specified) [Ginkgolide A],inactive: 43.5%
13,CCCS(=O)(=O)Nc1ccc(F)c(C(=O)c2c[nH]c3ncc(Cl)cc23)c1F,inactive: 44.4%
14,COc1ccc(-c2ccc3cc(C(=O)O)ccc3c2)cc1C12CC3CC(CC(C3)C1)C2 [Adapalene],inactive: 39.3%
15,O=S(=O)(O)CCSSCCS(=O)(=O)O [Dimesna],inactive: 40.4%
16,N#C[C@@H]1CCCN1C(=O)CNC12CC3CC(CC(O)(C3)C1)C2 [Vildagliptin],inactive: 47.1%
17,O=C(Nc1c[nH]nc1-c1nc2cc(CN3CCOCC3)ccc2[nH]1)NC1CC1,inactive: 28.3%
18,CCN(CC)C(=O)[C@]1(c2ccccc2)C[C@@H]1CN [Milnacipran],inactive: 44.9%
19,Cc1ncc(-c2ccnc(Nc3ccc(S(C)(=O)=O)cc3)n2)n1C(C)C,inactive: 30.3%
20,CC1(C)[C@@H](O[C@H]2O[C@H](C(=O)O)[C@@H](O)[C@H](O)[C@H]2O[C@@H]2O[C@H](C(=O)O)[C@@H](O)[C@H](O)[C@H]2O)CC[C@]2(C)[C@H]3C(=O)C=C4[C@@H]5C[C@@](C)(C(=O)O)CC[C@]5(C)CC[C@@]4(C)[C@]3(C)CC[C@@H]12 [Glycyrrhizin],inactive: 53.3% and inactive: 38.4%
21,O=C(O)[C@]1(Cc2cccc(Nc3nccs3)n2)CC[C@@H](Oc2cccc(Cl)c2F)CC1,inactive: 36.2%
22,O=C(c1ccc(F)cc1)C1CCN(CCn2c(=O)[nH]c3ccccc3c2=O)CC1 [Ketanserin Tartrate],inactive: 49%
23,CCN(CC)CCOC(=O)C(c1ccccc1)c1ccccc1 [Adiphenine Hydrochloride],inactive: 36.2%
24,C[C@H]1C[C@@H]2[C@H]([C@@H](O)C[C@@]3(C)[C@H]2CC[C@]3(O)C(=O)CO)[C@@]2(C)C=CC(=O)C=C12 [Methylprednisolone],inactive: 42.7%

row,Compound,percentage of GFP+
1,Cc1nc(C#Cc2ccnc(Cl)c2)c(C)n1-c1ccc(OC(F)(F)F)cc1,inactive: 44.6%
2,Cc1nc(Nc2ncc(C(=O)Nc3c(C)cccc3Cl)s2)cc(N2CCN(CCO)CC2)n1 [Dasatinib],inactive: 24.1%
3,COc1ccc(-c2cc(=O)c3c(O)cc(O[C@@H]4O[C@H](CO[C@@H]5O[C@@H](C)[C@H](O)[C@@H](O)[C@H]5O)[C@@H](O)[C@H](O)[C@H]4O)cc3o2)cc1O [Diosmin],inactive: 44.8%
4,CC(/C=C1\SC(=S)N(CC(=O)O)C1=O)=C\c1ccccc1 [Epalrestat],inactive: 48.9%
5,O=C(/C=C/c1ccccc1)NC(NC(=S)Nc1cccc2cccnc12)C(Cl)(Cl)Cl (stereo unspecified) [Salubrinal],inactive: 51.6%
6,CCCCOc1ccc(OCCCN2CCOCC2)cc1 [Pramocaine],inactive: 48.7%
7,Cc1cc(NS(=O)(=O)c2ccc(N)cc2)no1 [Sulfamethoxazole],inactive: 44.1%
8,C[C@@H]1CC(=O)NN=C1c1ccc(NN=C(C#N)C#N)cc1 [Levosimendan],inactive: 37.7%
9,CC(C)C[C@H](NC(=O)[C@@H]1O[C@H]1C(=O)O)C(=O)NCCCCN=C(N)N,inactive: 48.8%
10,NS(=O)(=O)c1cc2c(cc1Cl)NC(C(Cl)Cl)NS2(=O)=O (stereo unspecified) [Trichlormethiazide],inactive: 40%
11,O=S(=O)(O)c1cc(O)ccc1O [Ethamsylate],inactive: 47%
12,O=C(Nc1ncc(SCCN2CCCC2)s1)[C@]1(c2ccc(S(=O)(=O)C3CC3)cc2)C[C@H]1C1CCCCC1,inactive: 37.1%
13,CN[C@@H]1[C@H](O[C@H]2[C@H](O[C@H]3[C@H](O)[C@@H](O)[C@@H](N=C(N)N)[C@@H](O)[C@@H]3N=C(N)N)O[C@@H](C)[C@@]2(O)C=O)O[C@H](CO)[C@H](O)[C@H]1O [Streptomycin sulfate],inactive: 39.2%
14,O=C(CSc1nc2c(c(=O)n1-c1ccccc1)SCC2)Nc1ccc(-c2ccccc2)cn1,inactive: 49.2%
15,COC(c1ccccc1)(c1ccccc1)[C@H](Oc1nc(C)cc(C)n1)C(=O)O [Ambrisentan],inactive: 52.6%
16,N#CC1(c2ccc(NC(=O)c3cccnc3NCc3ccncc3)cc2)CCCC1 [Apatinib],inactive: 28%
17,O=c1c(-c2ccc(O)cc2)coc2cc(O)ccc12 [Daidzein],inactive: 41.3%
18,COc1cc(Nc2c(C#N)cnc3cc(OCCCN4CCN(C)CC4)c(OC)cc23)c(Cl)cc1Cl [Bosutinib],inactive: 37.8%
19,CCC(C)(C)c1ccc(CC(C)CN2C[C@@H](C)O[C@@H](C)C2)cc1 (stereo partly specified) [Amorolfine],inactive: 41.3%
20,CS(=O)(=O)CCNCc1ccc(-c2ccc3ncnc(Nc4ccc(OCc5cccc(F)c5)c(Cl)c4)c3c2)o1 [Lapatinib],inactive: 40.6%
21,"O=C1Cc2cc(CCN3CCN(c4nsc5ccccc45)CC3)c(Cl)cc2N1 [Ziprasidone Mesylate, Ziprasidone]",inactive: 42.2%
22,O=C(NCC1CN(c2ccc(N3CCOCC3=O)cc2)C(=O)O1)c1ccc(Cl)s1 (stereo unspecified) [Rivaroxaban],inactive: 48.2%
23,CCCCN(Cc1ccc(C(=O)NO)cc1)C(=O)Nc1ccccc1 [Nexturastat A],inactive: 47.5%
24,CCCCCCCCCCCCCCCC[N+](C)(C)C [Cetrimonium],inactive: 39.4%

row,Compound,percentage of GFP+
1,CN(C)CCC(CSc1ccccc1)Nc1ccc(S(=O)(=O)NC(=O)c2ccc(N3CCN(Cc4ccccc4-c4ccc(Cl)cc4)CC3)cc2)cc1[N+](=O)[O-] (stereo unspecified),inactive: 47.4%
2,Nc1nccs1 [Aminothiazole],inactive: 43.8%
3,NC(=O)c1cccnc1 [Nicotinamide],inactive: 44.1%
4,C/N=C(/NC#N)NCCSCc1[nH]cnc1C [Cimetidine],inactive: 44.7%
5,Fc1cc(-c2cccc3ncc(-c4cnn(C5CCNCC5)c4)nc23)cc(F)c1CN1CCOCC1,inactive: 51.6%
6,COc1cc([C@H]2Oc3cc([C@H]4Oc5cc(O)cc(O)c5C(=O)[C@@H]4O)ccc3O[C@@H]2CO)ccc1O [Silibinin A],inactive: 40.7%
7,C[C@@H]1O[C@@H](O[C@H]2[C@H](Oc3cc(O)c4c(c3)O[C@H](c3ccc(O)cc3)CC4=O)O[C@H](CO)[C@@H](O)[C@@H]2O)[C@H](O)[C@H](O)[C@H]1O [Naringin],inactive: 40%
8,CCc1cc(C(N)=S)ccn1 [Ethionamide],inactive: 37.8%
9,CS(=O)(=O)c1ccc(C(=O)Nc2ccc(Cl)c(-c3ccccn3)c2)c(Cl)c1 [Vismodegib],inactive: 41.8%
10,COC(=O)C1=C(C)N=C(C)/C(=C(/O)OC)C1c1ccccc1[N+](=O)[O-] (stereo unspecified) [Nifedipine],inactive: 34.3%
11,CC(C)(C)NC[C@H](O)COc1nsnc1N1CCOCC1 [Timolol],inactive: 39.3%
12,COc1ccc(CNCc2cccc3ccccc23)cc1,inactive: 44.3%
13,Cn1ncnc1[C@H]1c2nnc(O)c3cc(F)cc(c23)N[C@@H]1c1ccc(F)cc1,inactive: 42.7%
14,Nc1cccc2c1CN(C1CCC(=O)NC1=O)C2=O (stereo unspecified) [Lenalidomide],inactive: 46%
15,Cn1cnc2c(F)c(Nc3ccc(Br)cc3F)c(C(=O)NOCCO)cc21,inactive: 44.7%
16,Cc1cc(O)c2c(c1)C(=O)c1cc(O)cc(O)c1C2=O [Emodin],inactive: 43%
17,Nc1ccc(N=Nc2ccccc2)c(N)n1 [Phenazopyridine],inactive: 46.9%
18,C[C@H](Nc1ncnc2[nH]cnc12)c1cc2cccc(Cl)c2c(=O)n1-c1ccccc1,inactive: 36%
19,CCOC(=O)c1ccc(OC(=O)CCCCCN=C(N)N)cc1 [Gabexate],inactive: 47.9%
20,NC(=O)NO [Hydroxyurea],inactive: 43.5%
21,O=C(N/N=C/c1ccc(O)c(O)c1)c1cc2ccccc2cc1O [Dynasore],inactive: 40.7%
22,CN1CCN(C2=Nc3cc(Cl)ccc3Nc3ccccc32)CC1 [Clozapine],inactive: 42.5%
23,COc1ccc2c(c1)c(CC(=O)O)c(C)n2C(=O)c1ccc(Cl)cc1 [Indomethacin],inactive: 43%
